# Target: T1, Urease ous Canavalia ensiformis (Jack bean) (Canavalia ensiformis, UniProt P07374)
# Experiment: not given
# Conditions: not given
# T1 sequence (P07374 whole entry, looked up): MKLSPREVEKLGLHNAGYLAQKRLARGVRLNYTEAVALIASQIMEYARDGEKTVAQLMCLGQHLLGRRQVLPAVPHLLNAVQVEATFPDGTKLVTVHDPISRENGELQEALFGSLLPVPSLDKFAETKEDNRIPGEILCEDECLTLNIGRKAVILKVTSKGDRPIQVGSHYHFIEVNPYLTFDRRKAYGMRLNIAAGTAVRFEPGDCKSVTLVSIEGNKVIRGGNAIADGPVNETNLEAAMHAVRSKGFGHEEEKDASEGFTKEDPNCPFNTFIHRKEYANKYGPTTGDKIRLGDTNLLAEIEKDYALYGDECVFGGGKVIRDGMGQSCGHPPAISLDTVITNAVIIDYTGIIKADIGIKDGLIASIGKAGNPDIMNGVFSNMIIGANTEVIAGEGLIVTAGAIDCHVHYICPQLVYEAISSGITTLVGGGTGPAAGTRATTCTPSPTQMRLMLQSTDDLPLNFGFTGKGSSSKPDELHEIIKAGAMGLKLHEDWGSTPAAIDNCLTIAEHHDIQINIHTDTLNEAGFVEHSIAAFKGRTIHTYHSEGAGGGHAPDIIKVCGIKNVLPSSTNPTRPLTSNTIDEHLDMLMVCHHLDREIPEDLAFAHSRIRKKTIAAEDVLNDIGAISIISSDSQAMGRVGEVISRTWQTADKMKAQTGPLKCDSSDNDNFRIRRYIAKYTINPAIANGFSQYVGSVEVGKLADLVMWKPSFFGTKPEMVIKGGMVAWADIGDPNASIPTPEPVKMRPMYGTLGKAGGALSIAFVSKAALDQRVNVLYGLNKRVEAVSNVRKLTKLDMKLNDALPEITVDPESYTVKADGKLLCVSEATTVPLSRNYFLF
row,Compound,"inhibition rate (normed, based on NBPT)"
1,"CCc1ccc(CC(C)(C)C=O)cc1 [FLORALOZONE, 3-(4-Ethylphenyl)-2,2-dimethylpropanal]","0,954"
2,"CCc1ccc(CC(C)(C)C=O)cc1 [FLORAZON, 3-(4-Ethylphenyl)-2,2-dimethylpropanal]","0,371"
3,"Cc1ccc2c(c1)OC(=O)C2C (stereo not shown) [FURAMINTON/TONKALACTONE™, Dimethyl benzofuranone]","0,889"

# Same assay, conditions: 1 hour, 24°C, urea 1g/L, urease 2 U/mL, PBS 1x
row,Compound,Δ Absorbance at 1h (560nm)
1,"CCCCNP(N)(N)=S [NBPT, N-(n-Butyl)thiophosphoric triamide, reference compound]","0,00"

# Same assay, conditions: FRM 0,1% final, urea 1g/L, urease 2 U/mL, PBS 1x, 24°C, 1 hour, 560 nm; printed as fraction normed to NBPT
row,Compound,"inhibition rate (normed, based on NBPT)"
1,"C=C(C)[C@@H]1CC=C(C)[C@H](OC(C)=O)C1 (relative stereo) [CARVYL ACETATE CIS-, Cis-Carvyl acetate]","0,828"
2,"CCCCCCCCCC(C)C=O (stereo not shown) [ALDEHYDE C12 MNA, Aldehyde C12]","0,377"
3,"CC(C)=CCCC(C)=CC=O [CITRAL 95, Citral]","0,322"
4,"CC(C)=CCCC(C)=CC=O [CITRAL FF, Citral]","0,701"
5,"CC(C=O)Cc1ccc(C(C)C)cc1 (stereo not shown) [CYCLAMEN ALDEHYDE, Cyclamen aldehyde]","0,543"
6,"CC=CC(=O)C1C(C)=CCCC1(C)C (stereo not drawn) [DAMASCONE ALPHA, Alpha Damascone]","0,676"
7,"CC=CC(=O)C1=C(C)C=CCC1(C)C [D[…], Beta-damascenone]","0,887"
8,"CC(C=O)Cc1ccc2c(c1)OCO2 (stereo not shown) [HELIONAL, Helional]","0,975"
9,"CC(=O)C=CC1=C(C)CCCC1(C)C [IONONE BETA, Beta Ionone]","0,495"
10,"CCCCCC(CO)Cc1ccccc1 (stereo not shown) [JASMOL, Jasmol]","0,817"
11,"CC1=CC(C)C(C=O)CC1 (stereo not shown) [LIGUSTRAL, (Z,E)-2,4-dimethyl cyclohex-3-ene-1-carbaldehyde]","0,482"
12,"CC1=C(O)C(=O)CC1 [METHYL CYCLOPENTENOLONE-3,2,2 NAT., Methyl cyclopentenolone]","0,808"
13,"CC(=O)CCC=C(C)C [METHYL HEPTENONE-6,5,2, Methyl heptanone]","0,549"
14,"CCC(=O)/C=C/C1C(C)=CCCC1(C)C (stereo not drawn) [METHYL IONONE ALPHA / IFF, Alpha-methyl ionone]","0,767"
15,"C=CC(C)=CCC=C(C)C [OCIMENE, Ocimene]","0,836"
16,"C[C@H]1CC[C@@]2(O)C(C)(C)[C@@H]3CC[C@@]2(C)[C@H]1C3 [PATCHOULI ALCOHOL, (1R,3R,6S)-2,2,6,8-Tetramethyl-tricyclo[5.3.1.03,8]undec-3-ol]","0,972"
17,"CC1=CCC(C(C)C)=CC1 [TERPINENE GAMMA, Terpinene gamma]","0,523"
18,"CC1=CC(C)C(C=O)CC1 (stereo not shown) [VERTOCITRAL, (Z,E)-2,4-dimethyl cyclohex-3-ene-1-carbaldehyde]","0,559"

# Same assay, conditions: […], given as fraction; 1 hour, 24°C
row,Compound,Inhibition
1,"CCCCNP(N)(N)=S [NBPT, N-(n-Butyl)thiophosphoric triamide, reference compound]","1,00"

# Target: T1, Urease ous Canavalia ensiformis (Jack bean)
# Experiment: biochemical
# Conditions: 1 h, read-out: inhibition rate (normed, based on NBPT)
row,Compound,inhibition at 0.1 %
1,"CC(C)=CCCC(C)C=O (racemic) [MELONAL, (±)-2,6-Dimethyl-5-heptenal]",42.9%
2,"CC1=CCC2[C@H](C1)C2(C)C (stereo partly drawn) [CAREN DELTA-3, (1S)-3,7,7-Trimethyl-bicyclo[4.1.0]hept-3-en]",72.8%
3,"OCC=Cc1ccccc1 [CINNAMIC ALCOHOL, Cinnamyl alcohol]",43%
4,"CC(C)=CCCC(C)CCO (stereo not shown) [CITRONELLOL, Citronellol]",98.2%
5,"CC/C=C\CCO [HEXENOL CIS-3, Cis-3-Hexenol]",64%
6,"C=C(C)C1CC=C(C)CC1 (stereo not shown) [LIMONENE D nat, p-Mentha-1,8-dien]",86.6%
7,"C=C1CCC2CC1C2(C)C (stereo not drawn) [PINEN BETA, beta-Pinen]",103%

# Same assay, conditions: 1 h, read-out: inhibition rate (normed, based on NBPT), FRM 0,1% final, urea 1g/L, urease 2 U/mL, PBS 1x, 24°C, 1 hour, 560 nm; printed as fraction normed to NBPT
row,Compound,inhibition at 0.1 %
1,"CCCC1CC=C(C)C(=O)C1 (stereo not shown) [2-METHYL-5-PROPYL-2-CYCLOHEXENONE, 2-Methyl-5-propyl-2-Cyclohexenone]",84.7%
2,"C=CCCC(=O)C1=CCCC(C)(C)C1 [DYNASCONE, 1-(5,5-Dimethyl-1-cyclohexenyl)pent-4-en-1-one]",92.8%
3,"CC12CCC(CC1)C(C)(C)O2 [EUCALYPTOL, Eucalyptol]",104%
4,"CC(C)CC1CC(C)(O)CCO1 (stereo not shown) [FLOROSA, 4-Methyl-2-(2-methylpropyl)oxan-4-ol]",44.2%
5,"CC(C)=CCC/C(C)=C/C=O [GERANIAL, Geranial]",99.2%
6,"CC(C)=CCC/C(C)=C/CO [GERANIOL 60 B, Geraniol]",83.4%
7,"CCC/C=C/C=O [HEXENAL TRANS-2, Trans-2-Hexenal]",38.1%
8,"CCC/C=C/CO [HEXENOL TRANS-2, Trans-2-Hexenol]",45.5%
9,"CC/C=C\CCOC(C)=O [HEXENYL ACETATE CIS-3, Cis-3-hexenyl acetate]",77.9%
10,"CC/C=C\CCOC(=O)CCC [HEXENYL BUTYRATE CIS-3, Cis-3-hexenyl butyrate]",77.9%
11,"CC/C=C\CCOC(=O)CCCCC [HEXENYL CAPROATE CIS-3, Cis-3-hexenyl hexanoate]",44.9%
12,"CC/C=C\CCOC(=O)CC(C)C [HEXENYL I[…]-3, Cis-3-Hexenyl isovalerate]",80.4%
13,"CC/C=C\CCOC(=O)C(C)C [HEXENYL I[…]-3, Cis-3-hexenyl isobutyrate]",88.3%
14,"CC/C=C\CCOC(=O)CC [HEXENYL […]-3, Cis-3-hexenyl propionate]",85.9%
15,"CC/C=C\CCOC(=O)c1ccccc1O [HEXENYL […]-3, Cis-3-hexenyl salicylate]",88.5%
16,"CCCCCCC(C=O)=Cc1ccccc1 [HEXYL CINNAMIC ALDEHYDE ALPHA, Alpha-hexyl cinnamaldehyde]",62.6%
17,"CC(CC=O)c1ccc(C(C)(C)C)cc1 (stereo not shown) [LILIAL, 3-(4-Tert-butylphenyl)butanal]",34.7%
18,"C=CC(C)(O)CCC=C(C)C (stereo not shown) [LINALOOL, Linalool]",96.9%
19,"CCC1OC(=O)C(O)=C1C (stereo not shown) [METHYL ETHYL HYDROXYFURANONE, 5-Ethyl-3-hydroxy-4methyl-2(5H)-furanon]",61.1%
20,"CC(C)=CCCC(C)=CCO [NEROL 900, 3,7-Dimethylocta-2,6-dien-1-ol]",31.1%
21,"CC1=CCC2CC1C2(C)C (stereo not drawn) [PINEN ALPHA, alpha-Pinen]",32.2%
22,"CC1=CC(O)CC(C)C2CC(=C(C)C)CC12 (stereo not shown) [VETIVEROL, 4,8-dimethyl-2-propan-2-ylidene-3,3a,4,5,6,8a-hexahydro-1H-azulen-6-ol]",100%
23,"CC1=CC2C(=C(C)CCCC2(C)C)CC1 (stereo not shown) [[…], 2,5,9,9-tetramethyl-3,4,6,7,8,9a-hexahydrobenzo[7]annulene]",72.5%
24,"C=C1/C=C/[C@H](C(C)C)CC/C(C)=C/CC1 [[…], (1E,6E,8S)-1-methyl-5-methylidene-8-propan-2-ylcyclodeca-1,6-diene]",98.1%
25,CC/C=C\CCOC(C)OCC (stereo not drawn) [cis-1-(1-Ethoxyethoxy)-3-hexene],81.2%

# — patent publication EP4527191A1, “UREASE INHIBITORS” (priority 2023, dated 2025)
